# Laboratory results from PubChem BioAssay AID651820 (National Center for Advancing Translational Sciences (NCATS), 2012).
# In all, about 340,000 compounds went through this assay and about 12,000 (3.5%) were called active. This list was built around the results that the source calls inconclusive (neither active nor inactive); the mix of calls is not that of the screen. The call rests on the fitted dose curve; in most records, active means well fitted inhibition curve with a large enough effect; inconclusive means small, poorly fitted or top-dose-only effect, or another doubt; inactive means no such curve, though single readings can be large or run the other way. No potency is given beside an inconclusive call; the fits are too rough.
# Experiment: qHTS Assay for Inhibitors of Hepatitis C Virus (HCV)
# Conditions: Huh7.5.1 HCVcc-Cre (HCVcc is cell-culture hepatitis C virus) infection, luciferase reporter, 44 h; series mostly up to 41.8 µM
# In short: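 Seed cells (1,000/well) for 4 h; treat with compound and infect with HCVcc-Cre, moi about 0.5. Incubate 44 h, then detect luciferase activity.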
# Potency means the concentration at half of the fitted maximal effect; tags describe the fitted curve by direction and shape.
row,SMILES,Potency
1,COc1cc2c(cc1NC(=O)COC(=O)CNS(=O)(=O)c1ccc(C)cc1)oc1ccccc12,"inconclusive [inhibitor, full curve]"
2,CC1CN(S(=O)(=O)c2cccs2)CC(C)O1 (centres undefined),inactive
3,Cc1ccc(CCSc2ccc(F)cc2)cn1,inactive
4,COc1cc(/C=N/NC(=O)c2ccc(CSc3nc4ccccc4[nH]3)cc2)ccc1O,"inconclusive [inhibitor, single point]"
5,CCCc1cc(C(=O)Nc2ccc(C#N)cc2)no1,inactive
6,COc1ccc(CC2C(=O)NC(C)C(=O)N(C)C3C(=O)N(C)C(Cc4ccc(O)c(c4)Oc4ccc(cc4)C3O)C(=O)NC(C)C(=O)NC(C)C(=O)N2C)cc1 (centres undefined),"inconclusive [inhibitor, partial curve, poor fit]"
7,CCCCc1ccc(/C=C2/C(=O)ON=C2c2ccccc2)s1,inactive
8,CCOC(=O)c1ccc(NC(=O)c2nc[nH]c2C(=O)NC)cc1,"inconclusive [inhibitor, single point]"
9,N=c1c(C(=O)NCc2ccccc2)cc2c(=O)n3ccccc3nc2n1CCCN1CCOCC1,"inconclusive [inhibitor, single point]"
10,COc1ccc(CCN=C(N)NS(=O)(=O)c2cccs2)cc1OC,inactive
11,CC(=O)N1c2ccc(S(=O)(=O)N3CCCC3)cc2CC1C(=O)NCc1ccc(N(C)C)cc1 (centres undefined),inactive
12,Cc1cccc(OCC(=O)Nc2ccc(N3CCN(C(=O)c4ccccc4)CC3)cc2)c1,"inconclusive [inhibitor, single point]"
13,COc1ccc(C(=O)N2CCN(Cc3ccc4c(c3)OCO4)CC2)cc1[N+](=O)[O-],"inconclusive [inhibitor, single point]"
14,CCc1nc2nc(C)cc(Nc3cccc(C(F)(F)F)c3)n2n1,"inconclusive [inhibitor, single point]"
15,CCNS(=O)(=O)c1ccc(NC(=O)Nc2ccccc2OC)cc1,"inconclusive [inhibitor, full curve]"
16,FC(F)(F)c1cccc(NC(=S)Nc2ccc(Cl)c(Cl)c2)c1,inactive
17,CCOc1cc(N2CCOCC2)c(OCC)cc1NC(=O)CN1C(=O)NC(C)(C2CC2)C1=O (centres undefined),"inconclusive [inhibitor, partial curve]"
18,CCOC(=O)c1sc(NC(=O)CCN2CCN(C)CC2)c(C(=O)OCC)c1C,active: 14.1 µM
19,CCN1C(=O)[C@H]2[C@@H](c3ccc(C)cc3)N3C(=O)N(c4cccc(C)c4)C(=O)[C@@]3(Cc3ccccc3)[C@H]2C1=O,"inconclusive [inhibitor, single point]"
20,CC(C)(C)S(=O)(=O)N1C[C@H]2CC/C=C\C/C(c3ccccc3)=C\2[C@@H]1CCO,"inconclusive [inhibitor, single point]"
21,Cc1ccsc1C(=O)NN=C1CCCCCC1,inactive
22,Cc1ccc(C)c(NC(=O)CSc2nnc3n2CCCCC3)c1,inactive
23,CN(C)CCNc1nc2c(c(=O)[nH]c(=O)n2C)n1CCCc1ccccc1,inactive
24,COc1ccc(NS(=O)(=O)c2cc(C(=O)N3CCN(C/C=C/c4ccccc4)CC3)ccc2C)cc1,"inconclusive [inhibitor, partial curve]"
25,O=C1C=C(NCc2ccco2)CC(c2ccc(Cl)cc2)C1 (centres undefined),"inconclusive [inhibitor, single point]"
26,Cc1onc(-c2ccc(Cl)cc2Cl)c1-c1csc(N/N=C/c2ccccc2)n1,"inconclusive [inhibitor, single point]"
27,C/C(=N/NS(=O)(=O)c1cccc([N+](=O)[O-])c1)c1ccncc1,inactive
28,COc1ccc(NC(=O)CSCC(=O)Nc2cc(Cl)ccc2N2CCCC2)cc1,"inconclusive [inhibitor, full curve]"
29,CC(C)(C)c1cc(CCC(=O)N2CCNCC2)c(C(C)(C)C)cc1O,"inconclusive [inhibitor, partial curve]"
